# The other results are listed elsewhere or left out.
# Tests used:
# Test in all cases: glycan array binding signal (z-score within array); higher = stronger binding
# Conditions in all cases: glycan notation: IUPAC condensed, linker removed
# [1] = target: Gal(b1-3)GalNAc(b1-3)Gal(a1-4)Gal(b1-4)Glc
# Summary of the method: (§1)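 Glycan array data were curated from 3228 arrays in the Consortium for Functional Glycomics database and kept only where the protein sequence was available. Glycan names were converted to IUPAC-condensed notation, and columns mapping to the same glycan were averaged. The binding signal is a within-array Z-score, averaged across arrays of the same protein sequence at different concentrations or buffers and across linkers. Negative Z-scores can be read as non-binding.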
# [2] = target: Gal(b1-3)GalNAc(b1-4)Gal(b1-4)Glc
# Summary of the method: as §1
# [3] = target: Gal(b1-3)GalNAc(b1-4)[Neu5Ac(a2-3)]Gal(b1-4)Glc
# Summary of the method: as §1
# Gal(b1-3)GlcNAc = target: Gal(b1-3)GlcNAc
# Summary of the method: as §1
# [4] = target: Gal(b1-3)GlcNAc(a1-3)Gal(b1-4)GlcNAc
# Summary of the method: as §1
# [5] = target: Gal(b1-3)GlcNAc(a1-6)Gal(b1-4)GlcNAc
# Summary of the method: as §1
# Gal(b1-3)GlcNAc(b1-2)Man = target: Gal(b1-3)GlcNAc(b1-2)Man
# Summary of the method: as §1
# [6] = target: Gal(b1-3)GlcNAc(b1-2)Man(a1-3)[Gal(b1-3)GlcNAc(b1-2)Man(a1-6)]Man(b1-4)GlcNAc(b1-4)GlcNAc
# Summary of the method: as §1
# [7] = target: Gal(b1-3)GlcNAc(b1-2)Man(a1-3)[Gal(b1-3)GlcNAc(b1-2)Man(a1-6)]Man(b1-4)GlcNAc(b1-4)[Fuc(a1-6)]GlcNAc
# Summary of the method: as §1
# [8] = target: Gal(b1-3)GlcNAc(b1-2)Man(a1-3)[GlcNAc(b1-4)][Gal(b1-3)GlcNAc(b1-2)Man(a1-6)]Man(b1-4)GlcNAc(b1-4)GlcNAc
# Summary of the method: as §1
# [9] = target: Gal(b1-3)GlcNAc(b1-2)[Gal(b1-3)GlcNAc(b1-6)]Man(a1-6)[Gal(b1-3)GlcNAc(b1-2)Man(a1-3)]Man(b1-4)GlcNAc(b1-4)GlcNAc
# Summary of the method: as §1
# [10] = target: Gal(b1-3)GlcNAc(b1-3)Gal(b1-3)GlcNAc
# Summary of the method: as §1
# [11] = target: Gal(b1-3)GlcNAc(b1-3)Gal(b1-4)Glc
# Summary of the method: as §1
# [12] = target: Gal(b1-3)GlcNAc(b1-3)Gal(b1-4)GlcNAc
# Summary of the method: as §1
# [13] = target: Gal(b1-3)GlcNAc(b1-3)Gal(b1-4)GlcNAc(b1-2)Man(a1-3)[Gal(b1-3)GlcNAc(b1-3)Gal(b1-4)GlcNAc(b1-2)Man(a1-6)]Man(b1-4)GlcNAc(b1-4)GlcNAc
# Summary of the method: as §1
# [14] = target: Gal(b1-3)GlcNAc(b1-3)Gal(b1-4)GlcNAc(b1-2)[Gal(b1-3)GlcNAc(b1-3)Gal(b1-4)GlcNAc(b1-6)]Man(a1-6)[Gal(b1-3)GlcNAc(b1-3)Gal(b1-4)GlcNAc(b1-2)Man(a1-3)]Man(b1-4)GlcNAc(b1-4)[Fuc(a1-6)]GlcNAc
# Summary of the method: as §1
# [15] = target: Gal(b1-3)GlcNAc(b1-3)Gal(b1-4)GlcNAc(b1-3)Gal(b1-4)GlcNAc(b1-2)[Gal(b1-3)GlcNAc(b1-3)Gal(b1-4)GlcNAc(b1-3)Gal(b1-4)GlcNAc(b1-6)]Man(a1-6)[Gal(b1-3)GlcNAc(b1-3)Gal(b1-4)GlcNAc(b1-3)Gal(b1-4)GlcNAc(b1-2)Man(a1-3)]Man(b1-4)GlcNAc(b1-4)[Fuc(a1-6)]GlcNAc
# Summary of the method: as §1
# [16] = target: Gal(b1-3)GlcNAc(b1-3)Gal(b1-4)GlcNAc(b1-6)[Gal(b1-3)GlcNAc(b1-3)]Gal(b1-4)Glc
# Summary of the method: as §1
# [17] = target: Gal(b1-3)GlcNAc(b1-3)Gal(b1-4)[Fuc(a1-3)]GlcNAc
# Summary of the method: as §1
# [18] = target: Gal(b1-3)GlcNAc(b1-3)Gal(b1-4)[Fuc(a1-3)]GlcNAc(b1-6)[Gal(b1-3)GlcNAc(b1-3)]Gal(b1-4)Glc
# Summary of the method: as §1
# [19] = target: Gal(b1-3)GlcNAc(b1-3)GalNAc
# Summary of the method: as §1
# [20] = target: Gal(b1-3)GlcNAc(b1-6)Gal(b1-4)GlcNAc
# Summary of the method: as §1
# [21] = target: Gal(b1-3)GlcNAc(b1-6)GalNAc
# Summary of the method: as §1
# [22] = target: Gal(b1-3)GlcNAc(b1-6)[Gal(b1-3)]GalNAc
# Summary of the method: as §1
# Gal(b1-3)GlcNAc6S = target: Gal(b1-3)GlcNAc6S
# Summary of the method: as §1
# [23] = target: Gal(b1-3)[Fuc(a1-4)]GlcNAc
# Summary of the method: as §1
# [24] = target: Gal(b1-3)[Fuc(a1-4)]GlcNAc(b1-2)Man
# Summary of the method: as §1
# [25] = target: Gal(b1-3)[Fuc(a1-4)]GlcNAc(b1-2)Man(a1-3)[Gal(b1-3)[Fuc(a1-4)]GlcNAc(b1-2)Man(a1-6)]Man(b1-4)GlcNAc(b1-4)[Fuc(a1-6)]GlcNAc
# Summary of the method: as §1
# [26] = target: Gal(b1-3)[Fuc(a1-4)]GlcNAc(b1-3)Gal(b1-3)[Fuc(a1-4)]GlcNAc
# Summary of the method: as §1
# [27] = target: Gal(b1-3)[Fuc(a1-4)]GlcNAc(b1-3)Gal(b1-4)[Fuc(a1-3)]GlcNAc
# Summary of the method: as §1
# [28] = target: Gal(b1-3)[Fuc(a1-4)]GlcNAc(b1-6)GalNAc
# Summary of the method: as §1
# [29] = target: Gal(b1-3)[GlcNAc(b1-6)]GalNAc
# Summary of the method: as §1
# [30] = target: Gal(b1-3)[Neu5Ac(a2-6)]GalNAc
# Summary of the method: as §1
# [31] = target: Gal(b1-3)[Neu5Ac(a2-6)]GlcNAc(b1-4)Gal(b1-4)Glc
# Summary of the method: as §1
# [32] = target: Gal(b1-3)[Neu5Ac(b2-6)]GalNAc
# Summary of the method: as §1
# Gal(b1-4)Gal = target: Gal(b1-4)Gal
# Summary of the method: as §1
# [33] = target: Gal(b1-4)GalNAc(a1-3)[Fuc(a1-2)]Gal(b1-4)GlcNAc
# Summary of the method: as §1
# [34] = target: Gal(b1-4)GalNAc(b1-3)[Fuc(a1-2)]Gal(b1-4)GlcNAc
# Summary of the method: as §1
binder,measurement,setting,value
Epa13 (Candida glabrata) (protein) MGSSHHHHHHSSGLVPRGSHMASDSSENGYAHGCSPSIRAKLKPGLSMEIYSYALRPTDDHCWDSAYLDPMFPRTGYLTHKLLGKAEGIIGPLNFLAKNPACIPAVSTLPLAFHFPKPFTITNFTMLLYGYLSPKKTGKYTFKLLADDLLLMNFGADNAFDCCSHDATKDNIGEYVAYSVWPGVNKNVTVYLESGIYYPLRLFFNNRDAIAQLDFAYYFNDSPIRQTDFSGMFFSIPDSVKCPANI,glycan array binding signal (z-score),[1],-0.172
same,glycan array binding signal (z-score),[2],-0.276
same,glycan array binding signal (z-score),[3],-0.173
same,glycan array binding signal (z-score),Gal(b1-3)GlcNAc,-0.201
same,glycan array binding signal (z-score),[4],-0.046
same,glycan array binding signal (z-score),[5],-0.253
same,glycan array binding signal (z-score),Gal(b1-3)GlcNAc(b1-2)Man,-0.027
same,glycan array binding signal (z-score),[6],-0.226
same,glycan array binding signal (z-score),[7],-0.371
same,glycan array binding signal (z-score),[8],-0.285
same,glycan array binding signal (z-score),[9],-0.019
same,glycan array binding signal (z-score),[10],-0.037
same,glycan array binding signal (z-score),[11],-0.309
same,glycan array binding signal (z-score),[12],-0.418
same,glycan array binding signal (z-score),[13],-0.321
same,glycan array binding signal (z-score),[14],0.141
same,glycan array binding signal (z-score),[15],0.175
same,glycan array binding signal (z-score),[16],0.083
same,glycan array binding signal (z-score),[17],-0.011
same,glycan array binding signal (z-score),[18],-0.379
same,glycan array binding signal (z-score),[19],-0.128
same,glycan array binding signal (z-score),[20],-0.113
same,glycan array binding signal (z-score),[21],-0.243
same,glycan array binding signal (z-score),[22],-0.014
same,glycan array binding signal (z-score),Gal(b1-3)GlcNAc6S,-0.024
same,glycan array binding signal (z-score),[23],-0.314
same,glycan array binding signal (z-score),[24],0.332
same,glycan array binding signal (z-score),[25],-0.37
same,glycan array binding signal (z-score),[26],-0.321
same,glycan array binding signal (z-score),[27],-0.541
same,glycan array binding signal (z-score),[28],-0.222
same,glycan array binding signal (z-score),[29],-0.39
same,glycan array binding signal (z-score),[30],-0.251
same,glycan array binding signal (z-score),[31],-0.271
same,glycan array binding signal (z-score),[32],-0.408
same,glycan array binding signal (z-score),Gal(b1-4)Gal,-0.344
same,glycan array binding signal (z-score),[33],-0.434
same,glycan array binding signal (z-score),[34],-0.254

# — the supplement of paper PMC8728848
